Hit rate of the full screen: of about 44,000 compounds, about 340 (0.77%) were called active. Another 5% or so got no clear call; they are omitted. Calls come from the whole dose curve; as a rule, active = well fitted inhibition curve with a large enough effect; inconclusive = small, poorly fitted or top-dose-only effect; inactive = flat fitted curve, though single readings scatter. The list shows a part of the results.
assay: Acumen qHTS Assay for Inhibitors of the mTORC1 Signaling Pathway in MEF (Tsc2-/-, p53-/-) Cells: Sytravon; conditions: phospho-rpS6 immunofluorescence/PI, 24 h; series mostly up to 38.3 µM; activity change, negative = inhibition: at the top concentration;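 note: plate controls were DMSO for no effect and rapamycin for full effect; nearly all actives have a fitted effect of over 50% in size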
Outline: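 Compounds act on Tsc2-/-, p53-/- fibroblasts carrying an empty vector for 24 h before fixation and dual staining for phospho-S6 and DNA (propidium iodide). Values are percentages of cells above a rapamycin-defined pS6/PI threshold.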

Row | Compound | activity change, negative = inhibition
1 | CCOc1ccc(C(=O)Nc2ccc3c(c2)CCCN3S(=O)(=O)c2ccc(C)cc2)cc1 | inactive: 12.7%
2 | CC1CCCCN1Cc1c(O)ccc2c(=O)c(-c3ccc(Cl)cc3)c(C(F)(F)F)oc12 (stereo unspecified) | inactive: -1.6%
3 | COC(=O)c1c(NC(=O)c2ccc(Cl)c(Cl)c2)sc2c1CCCC2 | inactive: 7.91%
4 | CCOc1ccc(NC(=O)CSc2nnc3scc(-c4ccccc4)n23)cc1 | inactive: 9.47%
5 | O=C(Nc1ccccc1F)c1cnc(N2CCCCC2)c2ccccc12 | inactive: -0.351%
6 | Cc1oc(-c2ccccc2F)nc1Cn1c(SCc2cccc(C(F)(F)F)c2)nc2ccncc21 | inactive: -0.874%
7 | CCc1ccccc1NC(=O)c1cc(-c2ccc(Cl)s2)nc2ccccc12 | inactive: -0.69%
8 | COc1ccc(OC)c(CNC(=O)CCCn2c(=O)c3cccn3c3cccnc32)c1 | inactive: -1.37%
9 | CCOc1ccccc1NC(=O)Cn1c(=O)n(Cc2ccc(OC)cc2)c(=O)c2oc3ccccc3c21 | inactive: 2.87%
10 | COc1ccc(N(CC(=O)Nc2cc(OC)cc(OC)c2)S(=O)(=O)c2c(C)noc2C)cc1 | inactive: -0.61%
11 | COc1ccccc1-c1nnc(C2CCN(C(=O)c3ccccc3C)CC2)o1 | inactive: -17.3%
12 | Cc1cc2c(cc1S(=O)(=O)Nc1ccc(C(C)C)cc1)OCCN2C | inactive: 0%
13 | Cc1cccc(-n2c(C)cc(C(=O)C(=O)Nc3nncs3)c2C)c1 | inactive: -2.21%
14 | COc1ccccc1NC(=O)c1cc2c(=O)n(Cc3cccs3)ccc2nc1C | inactive: -4.93%
15 | Cc1cccc(-n2cnc3cc(C(=O)NCc4ccccc4Cl)ccc32)c1 | inactive: -6.66%
16 | COc1ccc(CCNc2ncnc3c2c(-c2ccccc2)cn3-c2ccc(Cl)cc2)cc1OC | inactive: -2.85%
17 | CCOC(=O)CSc1nc2ccc(NC(=O)c3ccc(Cl)cc3)cc2s1 | inactive: 2.76%
18 | COC(=O)c1ccc(NC(=O)C2CCN(c3ncnc4c3nc3n4CCCCC3)CC2)cc1 | inactive: -4.84%
19 | COc1cc(CN(C(=O)c2ccc(OC(C)C)cc2)c2ccccn2)cc(OC)c1OC | inactive: -15.6%
20 | Cc1cc(C)cc(NC(=O)CSc2c(C(C)C)cnc3c2c(=O)n(C)c(=O)n3C)c1 | inactive: -0.185%
21 | Cc1cc(Nc2nc3ccccc3c3nnc(C)n23)ccc1Br | inactive: -0.805%
22 | Cc1cc(C)cc(Nc2cc(C(=O)NC3CCCCC3)c3ccccc3n2)c1 | inactive: 2.59%
23 | CCOC(=O)c1ccccc1NC(=O)CSc1nnc(CC)n2c1cc1occc12 | inactive: -10.4%
24 | Fc1ccc(-c2cc3ncc4c(n3n2)-c2cc(Cl)ccc2OC4)cc1 | inactive: 2.61%

Row | Compound | activity change, negative = inhibition
25 | CCOC(=O)c1cc(C)n(CC2CCC(C(=O)Nc3ccc(OC)cc3)CC2)c1C (stereo unspecified) | inactive: -9.92%
26 | Cc1cc(C)c(S(=O)(=O)Nc2ccc(-c3ccc(N4CCCCCC4)nn3)cc2)c(C)c1 | inactive: -2.82%
27 | Cn1cnnc1SCC(=O)Nc1ccc(C#N)cc1 | inactive: -0.861%
28 | COC(=O)c1ccc(OCC2c3cc(OC)c(OC)cc3CCN2C(=O)Cc2ccccc2)cc1 (stereo unspecified) | inactive: 0.767%
29 | CN(CC(=O)NCc1ccccc1)S(=O)(=O)c1ccc2[nH]c3c(c2c1)CCCC3 | inactive: 2.84%
30 | CCc1ccccc1NC(=O)C1(C)Cc2ccccc2C(=O)O1 (stereo unspecified) | inactive: -5.12%
31 | CC(C)(C)C1CCc2c(sc(NC(=O)c3ccc(Cl)cc3)c2C(=O)NCc2ccco2)C1 (stereo unspecified) | inactive: -2.36%
32 | COc1ccccc1N1CCN(c2ncnc3c2cnn3-c2cccc(Cl)c2)CC1 | inactive: 5.6%
33 | CCN(Cc1ccccc1)S(=O)(=O)c1cc(C(=O)Nc2cc(Cl)cc(Cl)c2)ccc1F | inactive: -14%
34 | COc1ccc(-c2[nH]c(-c3cccc(OC)c3)nc2SCC(=O)NC2CCCC2)cc1 | inactive: -14.3%
35 | COc1ccc(-c2cn3nc(N4CCCC(C(=O)Nc5cc(C)cc(C)c5)C4)sc3n2)cc1 (stereo unspecified) | inactive: 0.839%
36 | CCN(CC)S(=O)(=O)c1ccc(C(=O)N2CC(=O)Nc3ccc(F)cc3C2c2ccccc2)cc1 (stereo unspecified) | inactive: -0.755%
37 | O=C(C1CCN(S(=O)(=O)c2ccc(Br)s2)CC1)N1CCN(c2ccccc2)CC1 | inactive: -16.5%
38 | CC(C)(C)OC(=O)N1CCC(c2c(C(=O)NCCc3ccccc3)cnn2-c2ccc(F)cc2)CC1 | inactive: 6.75%
39 | COc1ccc(CCN2C(=O)NC(NS(=O)(=O)c3ccc(NC(C)=O)cc3)(C(F)(F)F)C2=O)cc1OC (stereo unspecified) | inactive: -6.27%
40 | CC(=O)Nc1ccc2nc(SCCOc3cc(C)cc(C)c3)sc2c1 | inactive: -11.2%
41 | COc1cc(NC(=O)c2c(C)oc3c2C2=NCCN2C=N3)cc(OC)c1OC | inactive: -9.34%
42 | CCc1ccc(-c2nn(CC(=O)NCc3ccccc3)c3c2cnc2ccc(F)cc23)cc1 | inactive: -3.32%
43 | COc1ccc(OCC(=O)NCc2ccc3c(c2)CCN3C(=O)c2ccc(F)cc2)cc1 | inactive: -14.4%
44 | COc1cc(NC(=O)COCc2cc(-c3ccc4c(c3)OCO4)on2)cc(OC)c1 | inactive: -9.74%
45 | Cc1ccc(-n2c(=O)c3c(cnn3C)n(Cc3ccccc3F)c2=O)cc1 | inactive: -6.63%
46 | Cn1c2ccccc2c2cnn(CC(=O)Nc3ccccc3C(F)(F)F)c(=O)c21 | inactive: -7.18%
47 | CCn1cc(S(=O)(=O)c2ccccc2)c(=O)c2cc(F)c(N3CCN(c4ccccc4)CC3)cc21 | inactive: -6.76%
48 | CCN(CC)C(=O)c1sc2c(c1C)c(=O)n(-c1ccc(OC)cc1OC)c(=O)n2CC(=O)c1ccc(Cl)cc1 | inactive: -2.81%

Row | Compound | activity change, negative = inhibition
49 | COc1cc(NC(=O)c2oc3c(c2C)-c2nn(Cc4cccc(Cl)c4)cc2CC3)cc(OC)c1 | inactive: 8.39%
50 | N#Cc1ccc(C(=O)Nc2ccc3c(c2)N(C2CCCC2)C(=O)c2ccccc2S3)cc1 | inactive: -0.803%
51 | CC(C)Sc1ncc(Cl)c(C(=O)N(Cc2ccc(N(C)C)cc2)C2CCS(=O)(=O)C2)n1 (stereo unspecified) | inactive: 0.145%
52 | CCc1nn(CC(=O)Nc2ccc(N(CC)CC)cc2C)c(=O)c2cc3sccc3n12 | inactive: 3.56%
53 | Cc1nn(-c2ccc(N3CCCC3)nn2)c(C)c1CCC(=O)Nc1ccc(F)c(Cl)c1 | inactive: -7.08%
54 | Cc1ccc(-c2noc(-c3ccccc3NC(=O)C3CC(=O)N(c4ccccc4C)C3)n2)cc1 (stereo unspecified) | inactive: -28.4%
55 | CCn1ccc2c(OCC(=O)NCc3ccc(F)cc3)cccc2c1=O | inactive: -14.2%
56 | CC(C)Cn1c(=O)c2ccccc2n2c(CCC(=O)NC(C)c3ccccc3)nnc12 (stereo unspecified) | inactive: 1.8%
57 | Cc1cc(C)c2nc(N(Cc3cccnc3)C(=O)c3cccs3)sc2c1 | inactive: -9.36%
58 | CCOc1ccc(C2C(C(=O)Nc3ccccc3)=C(C)Nc3nc(SCc4cc(C)ccc4C)nn32)cc1 (stereo unspecified) | inactive: -1.39%
59 | COc1cccc2cc(-c3nnc(Nc4c(F)cccc4F)s3)c(=O)oc12 | inactive: -0.686%
60 | CSc1ncc(C(=O)N2CCN(c3cc(Cl)ccc3C)CC2)c(C)n1 | inactive: -5.59%
61 | CCCN(C(=O)CCc1nc(-c2ccc(OC)cc2)no1)c1ccccc1F | inactive: -1.01%
62 | COc1cc(-c2nc(Cn3nnc(C(=O)Nc4ccc(C)cc4C)c3C)c(C)o2)cc(OC)c1OC | inactive: 2.48%
63 | Cc1oc(-c2ccccc2F)nc1CS(=O)(=O)CC(=O)NCCc1ccc(Cl)cc1 | inactive: -9.1%
64 | COc1ccc(N2CCN(c3oc(-c4ccc(COc5cccc(C)c5)o4)nc3C#N)CC2)cc1 | inactive: -5.97%
65 | COc1ccc(CC(=O)NCCc2csc3nc(-c4ccccc4F)nn23)cc1 | inactive: -14.9%
66 | Cc1ccc(NC(=O)CN(C)S(=O)(=O)c2ccc3[nH]c4c(c3c2)CCCC4)c(Cl)c1 | inactive: -0.111%
67 | Cc1cccc(NC(=O)c2sc3nc(N4CCOCC4)c4c(c3c2N)CC(C)(C)OC4)c1 | inactive: -13.6%
68 | COc1ccc(NC(=O)Cn2ncc3c2-c2ccccc2OC3)cc1Cl | inactive: -2.48%
69 | O=C(CSc1nc2c([nH]c3ccccc32)c(=O)n1-c1ccccc1)Nc1ccc2c(c1)OCCO2 | inactive: -3.99%
70 | COc1ccccc1C(=O)Nc1ccc(OCc2cc(=O)n3ccsc3n2)cc1 | inactive: -5.57%
71 | CCN(CCCNC(=O)c1cc2c(Cl)nc3ccccc3c2s1)Cc1ccccc1 | inactive: -26%
72 | Cc1ccc(C)c2sc(N3CCN(C(=O)C(C)(C)C)CC3)nc12 | inactive: -8.99%

Row | Compound | activity change, negative = inhibition
73 | CCOc1ccc(CCNC(=O)c2ccc(-n3c(C)cc4c3CCC(C)C4)cc2)cc1OCC (stereo unspecified) | inactive: -9.46%
74 | CC1=C(C(=O)Nc2ccc(C)cc2Cl)C2(CCCCCC2)OC1=O | inactive: -5.81%
75 | CC(=O)N1c2ccc(S(=O)(=O)NCCC(=O)Nc3ccc(Br)c(C)c3)cc2CC1C (stereo unspecified) | inactive: -9.4%
76 | CCC(=O)c1cc2c(cc1NC(=O)c1ccccc1F)OCCO2 | inactive: 0.315%
77 | COc1ccc(N2CC(NC(=O)c3ccc(S(=O)(=O)N4CCOCC4)cc3)CC2=O)cc1OC (stereo unspecified) | inactive: -2.5%
78 | CCCCNC(=O)C1CCC(CNS(=O)(=O)c2ccc(Cl)cc2)CC1 (stereo unspecified) | inactive: -8.03%
79 | CC(C)(C)c1ccc(-c2nc(SCC(=O)Nc3ccc(Cl)cc3)[nH]c(=O)c2C#N)cc1 | inactive: -7.64%
80 | CC(=O)NCCn1c(SCC(=O)Nc2ccc(C)cc2)nc2ccccc2c1=O | inactive: 1.54%
81 | COc1cccc(-n2c(-c3cccc(F)c3)nc3c(cnn3-c3ccc(C)cc3)c2=O)c1 | inactive: -14.9%
82 | Cc1c(-c2ccc(Cl)cc2)c(=O)oc2ccc(OC(=O)N3CCOCC3)cc12 | inactive: 0.264%
83 | COc1ccccc1CNC(=O)CC(c1ccc(OC)c(OC)c1)N1Cc2ccccc2C1=O (stereo unspecified) | inactive: 1.7%
84 | CCc1cnc2c(c1SCC(=O)c1ccc(OC)cc1)c(=O)n(C)c(=O)n2C | inactive: -0.319%
85 | CCN(Cc1ccccc1)c1ncnc2c1nnn2C | inactive: -1.92%
86 | COc1ccc(OC)c(/C=C/C(=O)Nc2ccc(C(=O)OCCC(C)C)cc2)c1 | inactive: 10.8%
87 | O=S(=O)(NCc1ccc(Cl)cc1)c1ccc(-c2cnc(C3CC3)o2)cc1 | inactive: 11.2%
88 | Cc1ccccc1CN1C(=O)c2ccccc2Sc2ccc(C(=O)NC3CCCC3)cc21 | inactive: 11.4%
89 | CCCCN(CCCC)C(=O)C1CCN(S(=O)(=O)c2cccc3nsnc23)CC1 | inactive: -2.74%
90 | Cc1ccc(Cl)cc1-n1ncc2c(N3CCCCCC3)ncnc21 | inactive: 0.171%
91 | O=C(NCc1ccc(F)cc1)c1cc(-c2ccc(Cl)cc2)n[nH]1 | inactive: -9.87%
92 | O=C(Nc1cccnc1)c1cc(-c2cccc(Cl)c2)on1 | inactive: 6.09%
93 | CCC(C)NC(=O)CCSc1nc(-c2ccc(OC)cc2)cc(C(F)(F)F)n1 (stereo unspecified) | inactive: 0.871%
94 | CCc1ccc(S(=O)(=O)c2nnn3c2nc(Nc2ccc(F)cc2)c2cc(Cl)ccc23)cc1 | inactive: 0.237%
95 | O=C(O)c1cccc(Nc2ncnc3scc(-c4ccccc4)c23)c1 | inactive: -1.27%
96 | COc1ccc(NC(=O)c2cc(CN3CCCC3)on2)cc1Cl | inactive: -8.48%

— PubChem BioAssay AID493208 (National Center for Advancing Translational Sciences (NCATS), 2011)
